The data scatter; read single values as rough.
Test: amyloid nucleation score relative to library mode (yeast Sup35 reporter selection) (log enrichment difference); higher = more amyloid nucleation; sequences are the first 22 residues of the Bri2 peptide extended by up to 12 random residues
Conditions: random library (experiment): 1;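 active = nucleation score significantly above 0 at FDR 0.05; inactive = not significantly above 0 or absent from output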
Protocol: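 Random C-terminal extensions of the 22-aa Bri2 peptide by 12 NNK codons; premature stops give shorter extensions. Peptides were fused to the Sup35 nucleation domain in S. cerevisiae [psi-pin-] and selected on -ADE-URA plates for 7 d at 30 °C. The nucleation score is log(output/input), centred to the mode of each of 3 independent libraries (1 input, 3 technical output replicates), with duplicates merged. Sequences absent from the output ('random_non_nuc') were imputed with the library mode value, so they are given as censored (<). Nucleators are scores significantly >0 at FDR 0.05.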
For EASNCFAIRHFENKFAVETLICCSR, the amyloid nucleation score was 7.6.
For EASNCFAIRHFENKFAVETLICCSRGCSRTHMGI, the amyloid nucleation score was 4.24.
Sequence EASNCFAIRHFENKFAVETLICCSRGVPNVADRQ has an amyloid nucleation score of 6.7.
EASNCFAIRHFENKFAVETLICCSRKERNEGW gave an amyloid nucleation score of 4.83.
With EASNCFAIRHFENKFAVETLICCSRVLSCLNTEW the amyloid nucleation score was 6.59.
EASNCFAIRHFENKFAVETLICCSRVQMGWTKRR gave an amyloid nucleation score of 8.3.
With EASNCFAIRHFENKFAVETLICCSSNCVAHGRVR the amyloid nucleation score was 6.32.
In the case of EASNCFAIRHFENKFAVETLICCSSSWLAVLMEW, the amyloid nucleation score is reported as 6.55.
With EASNCFAIRHFENKFAVETLICCSSWYESNRRLE the amyloid nucleation score was 7.47.
EASNCFAIRHFENKFAVETLICCSTQCSLGRW showed an amyloid nucleation score of 8.42.
With EASNCFAIRHFENKFAVETLICCSVCEHPGHSRE the amyloid nucleation score was 8.12.
EASNCFAIRHFENKFAVETLICCSVIRT gave an amyloid nucleation score of 7.67.
For EASNCFAIRHFENKFAVETLICCSVSNVRLMSPR, the amyloid nucleation score was 8.62.
EASNCFAIRHFENKFAVETLICCSVSYTHWWVCE gave an amyloid nucleation score of 6.06.
Sequence EASNCFAIRHFENKFAVETLICCSWG has an amyloid nucleation score of 8.07.
For EASNCFAIRHFENKFAVETLICCSWVGCYKLIAW, the amyloid nucleation score was 8.2.
EASNCFAIRHFENKFAVETLICCSYCLRVSCGQL showed an amyloid nucleation score of 6.77.
With EASNCFAIRHFENKFAVETLICCSYG the amyloid nucleation score was 7.24.
For EASNCFAIRHFENKFAVETLICCSYQMQFVHGIV, the amyloid nucleation score was 2.16.
EASNCFAIRHFENKFAVETLICCT gave an amyloid nucleation score of 0.697.

Same assay, conditions: random library (experiment): 2
Sequence EASNCFAIRHFENKFAVETLICCSNRSNNCRNMS has an amyloid nucleation score of 4.42.
Sequence EASNCFAIRHFENKFAVETLICCSQRVDGLYDFL has an amyloid nucleation score of 7.79.
Work on EASNCFAIRHFENKFAVETLICCSQSCLSSVDKE yielded an amyloid nucleation score of 6.46.
In the case of EASNCFAIRHFENKFAVETLICCSRRNLSDTYIK, the amyloid nucleation score is reported as “inactive”.
With EASNCFAIRHFENKFAVETLICCSSAMCNPFSRA the amyloid nucleation score was 8.51.
Sequence EASNCFAIRHFENKFAVETLICCSSFSINCLKDA has an amyloid nucleation score of 8.48.
Sequence EASNCFAIRHFENKFAVETLICCSSIMVGKGSLV has an amyloid nucleation score of 7.3.
Work on EASNCFAIRHFENKFAVETLICCSSLLHFRGYVI yielded an amyloid nucleation score of 4.35.
EASNCFAIRHFENKFAVETLICCSSW gave an amyloid nucleation score of 8.45.
With EASNCFAIRHFENKFAVETLICCSTCSFLCTGDR the amyloid nucleation score was 8.27.
For EASNCFAIRHFENKFAVETLICCSVDAS, the amyloid nucleation score was 6.63.
Work on EASNCFAIRHFENKFAVETLICCSVI yielded an amyloid nucleation score of 8.08.
In the case of EASNCFAIRHFENKFAVETLICCSVRVNYHGWWK, the amyloid nucleation score is reported as 6.59.
Work on EASNCFAIRHFENKFAVETLICCSVVDV yielded an amyloid nucleation score of 8.52.
For EASNCFAIRHFENKFAVETLICCSVVKSLHRILL, the amyloid nucleation score was 7.15.

Same assay, conditions: random library (experiment): 3
Sequence EASNCFAIRHFENKFAVETLICCSPVWVLGARRF has an amyloid nucleation score of 9.41.
In the case of EASNCFAIRHFENKFAVETLICCSQ, the amyloid nucleation score is reported as 7.85.
In the case of EASNCFAIRHFENKFAVETLICCSRGHGCVMDPG, the amyloid nucleation score is reported as 5.49.
Sequence EASNCFAIRHFENKFAVETLICCSRGRLK has an amyloid nucleation score of 1.39.
EASNCFAIRHFENKFAVETLICCSSDVRRSGMWA gave an amyloid nucleation score of 6.52.
Work on EASNCFAIRHFENKFAVETLICCSSGCSTQERSG yielded an amyloid nucleation score of 7.84.
Sequence EASNCFAIRHFENKFAVETLICCSSLAFLNARTG has an amyloid nucleation score of 7.56.
For EASNCFAIRHFENKFAVETLICCSVMNFNVYELR, the amyloid nucleation score was 8.56.
Sequence EASNCFAIRHFENKFAVETLICCSVMYRVLEFYL has an amyloid nucleation score of -0.0612.
Work on EASNCFAIRHFENKFAVETLICCSVSSHFNARAM yielded an amyloid nucleation score of 6.8.
Sequence EASNCFAIRHFENKFAVETLICCSVVAWITCG has an amyloid nucleation score of 8.07.
Sequence EASNCFAIRHFENKFAVETLICCSVWRCTVGSGN has an amyloid nucleation score of 8.48.
In the case of EASNCFAIRHFENKFAVETLICCSWKIRWPVCFG, the amyloid nucleation score is reported as 4.03.
Work on EASNCFAIRHFENKFAVETLICCSYACAPTWYGP yielded an amyloid nucleation score of 9.4.
In the case of EASNCFAIRHFENKFAVETLICCTAARSSICNHT, the amyloid nucleation score is reported as “inactive”.

From the supplement of paper PMC12067230
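Further: [psi-pin-] Saccharomyces cerevisiae expressing SupN fusions, induced by 100 µM Cu2SO4, selected 7 d at 30 °C without adenine and uracil, scored by deep sequencing of output versus input.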
